Results: PubChem BioAssay AID2675 (National Center for Advancing Translational Sciences (NCATS), 2010)
The campaign covered roughly 280,000 compounds. About 100 (0.036%) were called active. Inconclusive means that the source gave no clear call. Such entries were picked first, then a sample of the others. Calls follow the shape of the dose curve; as a rule, active = well fitted inhibition curve with a large enough effect in the signal ratio, with a control signal flat (not every such curve was filed as active); inconclusive = small, poorly fitted or top-dose-only effect, or effect the other way, or a change in a side signal; inactive = no such curve, though single readings can be large or run the other way; the % refers to the signal ratio. Where the call is inconclusive, the potency comes from a doubtful curve fit. “Side channel” marks fits to a control or component signal instead of the main read-out.

biological target: Muscleblind-like protein 1 (Homo sapiens) (UniProt Q9NR56); experiment: qHTS Assay for Inhibitors of MBNL1-poly(CUG) RNA binding; details: TR-FRET MBNL1-His/biotin-(CUG)12 binding, 665/545 ratio; series mostly up to 57.5 µM
Sequence of UniProt Q9NR56 (Q9NR56 whole entry, looked up): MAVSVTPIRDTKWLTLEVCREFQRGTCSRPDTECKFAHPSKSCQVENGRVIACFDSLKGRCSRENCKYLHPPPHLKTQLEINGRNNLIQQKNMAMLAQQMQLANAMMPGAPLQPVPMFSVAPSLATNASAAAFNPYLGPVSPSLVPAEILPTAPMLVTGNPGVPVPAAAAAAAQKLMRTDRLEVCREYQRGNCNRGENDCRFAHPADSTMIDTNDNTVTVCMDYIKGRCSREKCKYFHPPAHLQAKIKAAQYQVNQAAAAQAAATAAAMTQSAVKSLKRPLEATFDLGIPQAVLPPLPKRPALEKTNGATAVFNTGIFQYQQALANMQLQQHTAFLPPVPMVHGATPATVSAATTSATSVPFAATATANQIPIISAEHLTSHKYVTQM
In short: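 Inhibition of protein-RNA binding appears as loss of TR-FRET between terbium anti-His antibody on MBNL1-His and streptavidin-XL665 on biotin-(CUG)12. Activity is normalized to buffer-only and uninhibited-complex controls.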
Potency is read from the fitted curve at half-maximal effect; tags tell the direction and shape of the fitted curve or compound fluorescence and quenching.

SMILES	Potency
CCOc1ccc(C(=O)O/N=C(\N)c2ccccn2)cc1	inactive
CCOC(=O)c1c(C)n(C)c2ccc(OCC(O)Cn3c(C)nc4ccccc43)cc12 (stereo not given)	inconclusive: 39.8 µM [quencher, side channel, single point]
O=C(O)Cn1cc(C(=S)N2CCOCC2)c2ccccc21	inactive
CC(NC(=O)C(=O)N/N=C\c1ccc([N+](=O)[O-])cc1)c1ccccc1 (stereo not given)	inconclusive: 0.708 µM [quencher, side channel, full curve, poor fit]
COc1cc(C(=S)N2CCOCC2)ccc1OC(=O)c1cc([N+](=O)[O-])cc([N+](=O)[O-])c1	inconclusive: 2.82 µM [quencher, side channel, full curve, poor fit]
COC(=O)[C@H](CC(C)C)NC(=O)N1CCCCC1	inactive
CCN(CC(=O)NCc1ccc(F)cc1)C(=O)/C=C/c1ccc(OC)c(S(=O)(=O)NC(C)C)c1	inactive
CC(C)NC(=S)NC(=O)c1ccc(-c2ccccc2)cc1	inactive
Cc1ccccc1N(C(=O)c1snc(C(N)=O)c1N)C(C(=O)NCc1ccccc1)c1ccc(O)cc1 (stereo not given)	inconclusive: 31.6 µM [fluorescent, side channel, partial curve]
CCOC(=O)CN1C(=O)S/C(=C\c2ccc3c(c2)OCO3)C1=O	inconclusive: 11.2 µM [quencher, side channel, partial curve]
O=c1c2c3nc4ccccc4nc3n(-c3ccc4c(c3)OCCO4)c2ncn1CC1CCCO1 (stereo not given)	inactive
CCC(=O)N(Cc1ccco1)c1nc(-c2ccc(OC)cc2)cs1	inconclusive: 0.562 µM [quencher, side channel, single point]
COc1cc2c(cc1OC)-c1cc(NC3CCCC3)nc(=O)n1CC2	inactive
O=C(CSc1ncnc2c1nnn2Cc1ccccc1)NC1CCCC1	inactive
Cc1ccc(NC(=O)C(=O)Nc2ccc(C)cn2)nc1	inactive
NS(=O)(=O)c1ccc(O)c(N2C(=O)c3cccc4c(C(=O)O)ccc(c34)C2=O)c1	inconclusive: 11.2 µM [quencher, side channel, partial curve]
Cc1cnn(C(=S)NCc2ccc(Cl)cc2)c1	inactive
COc1cc(C(=O)NNC2=NC(C)(C)Cc3cc(C)c(C)cc32)cc(OC)c1OC	inconclusive: 0.316 µM [fluorescent, side channel, partial curve]
C(#Cc1ccccc1)CN1CCN(c2ccccn2)CC1	inactive
COc1ccc(CNC(C)C(=O)Nc2ccc3ccccc3c2)cc1OC (stereo not given)	inactive

SMILES	Potency
Cc1nc(Nc2ccc(S(=O)(=O)N3CCCC3)cc2)c2nnn(Cc3ccccc3)c2n1	inconclusive: 0.1 µM [fluorescent, side channel, full curve]
COc1ccccc1NC(=O)c1sc2ncn(Cc3ccc(C)cc3)c(=O)c2c1C	inconclusive: 8.91 µM [quencher, side channel, single point]
COc1ccc(C(=O)O/N=C(\N)Cc2ccc(Cl)c(Cl)c2)cc1OC	inactive
Cc1cccc(-n2c(O)c(C=NCCCN3CCOCC3)c3ccccc3c2=O)c1	inconclusive: 31.6 µM [quencher, side channel, single point]
O=S(=O)(c1cccc2nsnc12)N1CCN(C/C=C/c2ccccc2)CC1	inconclusive: 15.8 µM [quencher, side channel, partial curve]
COc1ccccc1N1CCN(C(=O)CN2C(=O)c3cccc4cccc(c34)C2=O)CC1	inconclusive: 4.47 µM [quencher, side channel, full curve]
COc1ccccc1/C=C/C(=O)Nc1ccc(S(=O)(=O)Nc2cc(C)nc(C)n2)cc1	inconclusive: 28.2 µM [quencher, side channel, single point]
O=C(O)c1cc(NS(=O)(=O)c2ccc(N3CCOCC3)c([N+](=O)[O-])c2)cc(C(=O)O)c1	inconclusive: 28.2 µM [quencher, side channel, partial curve]
Cc1cc(C)n(Cc2ccc(NC(=O)c3nn(C)cc3[N+](=O)[O-])cc2)n1	inconclusive: 12.6 µM [quencher, side channel, partial curve]
COc1cc(OC)c(OC)cc1CN1CCCC(C(=O)c2ccc3c(c2)OCO3)C1 (stereo not given)	inconclusive: 7.08 µM [inhibitor, full curve, poor fit]
CC(=O)N1CCN(c2ccc(C(N)=O)cc2[N+](=O)[O-])CC1	inconclusive: 14.1 µM [quencher, side channel, partial curve]
CCOC(=O)N1CCC(n2c(=S)[nH]c3cc(OC)c(OC)cc3c2=O)CC1	inactive
O=C(Cn1cnc([N+](=O)[O-])n1)N/N=C/c1ccccc1O	inconclusive: 25.1 µM [quencher, side channel, partial curve]
CCN(CCO)Cc1cn[nH]c1-c1ccc(C)c(C)c1	inactive
Oc1ccc(N=Cc2ccc(OCc3ccccc3)cc2)cc1	inconclusive: 12.6 µM [quencher, side channel, partial curve, poor fit]
O=C(Cn1nc(-c2ccc(Cl)cc2)ccc1=O)N1CCN(c2ccccc2)CC1	inconclusive: 11.2 µM [quencher, side channel, partial curve]
COc1ccc(NC(=O)COC(=O)C2CCC(C(C)(C)C)CC2)c([N+](=O)[O-])c1 (stereo not given)	inconclusive: 22.4 µM [fluorescent, side channel, partial curve, poor fit]
COc1ccc(-n2nc([N+](=O)[O-])c(=NCCc3cccc(C)c3)n2O)cc1	inconclusive: 3.98 µM [quencher, side channel, partial curve]
COc1ccc(C(=O)NCC(=O)N/N=C/c2ccco2)cc1OC	inconclusive: 12.6 µM [quencher, side channel, partial curve]
COC(=O)c1ccc(NC(C(=O)OC)C(C)C)c([N+](=O)[O-])c1 (stereo not given)	inconclusive: 17.8 µM [quencher, partial curve]
